Read-outs that look alike come from different tables or passages of the source.
System: B. subtilis ΔbfabHA ΔbfabHB::erm double-deletion mutant
Details: for Support of growth of the KASIII-deficient strain: at or below 20° C.
Procedure: E. coli and B. subtilis were routinely grown in LB medium at 37° C. B. subtilis minimal medium was composed of Spizizen salts (Spizizen, PNAS USA 44: 1072-1078 (1958)), supplemented with 0.5% glucose and amino acids (Sueoka et al., Cold Spring Harbor Symp. Quant. Biol. 33: 695-705 (1968)). As needed, media were supplemented with erythromycin (1 μg/ml) and ampicillin (100 μg/ml). IPTG and X-gal were used at concentrations of 0.4-1 mM and 40 μg/ml, respectively. As needed, media were supplemented with 10-100 μM individual fatty acids suspended in 0.01% (v/v) Brij 58P detergent. Fatty acids were obtained from Sigma-Aldrich Corporation (St. Louis, Mo.). The purity of the commercial sources of anteiso-C16:0, iso-C16:0 and palmitoleic acid were determined by GC-MS analysis (see Table 1). Cell density was determined by monitoring A600 using a Spectronic 20D+ spectrophotometer (Thermo Fisher Scientific Inc., Waltham, Mass.) or in a 96-well plate using an ELx808 Absorbance Microplate Reader (BioTek Instruments, Inc., Winooski, Vt.). Doubling time (Td) was determined from the log-phase time points of cultures.
A 0.5 ml aliquot of an overnight B. subtilis culture normalized for equal cell density was collected by centrifugation at 13,200×g for 30 seconds. The cell pellet was suspended in 50 ml minimal medium or LB rich medium. Cell cultures were shaken at 250 rpm. Cells were collected at late log phase by centrifugation at 5,000×g for 10 minutes. The collected cell pellets were lyophilized and stored at −20° C. until analysis. Lipids were extracted from lyophilized bacterial cell pellets using chloroform/methanol (Ways et al., J. Lipid Res. 5: 318-328 (1964)), and fatty acids were then converted to picolinyl ester (lipidlibrary.aocs.org/ms/ms02/index.htm) (Harvey, Biomed. Mass Spectrom. 9: 33-38 (1982)) or methyl esters using methanolic-HCl at 80° C. for 60 minutes (Broekman et al., J. Bacteriol. 116: 285-289 (1973); and Broekman et al., J. Bacteriol. 117: 971-977 (1974)). The recovered picolinyl ester or fatty acid methyl esters were concentrated as needed under a stream of nitrogen gas and analyzed with GC-MS interfaced with a Mass Detector 5973 (Agilent Technologies, Santa Clara, Calif.). The double bond positions in unsaturated fatty acids were determined by GC-MS analysis of dimethyl disulfide adducts (Buser et al., Anal. Chem. 55: 818-822 (1983)).
A KASIII-deficient strain was developed in the ΔbfabHA strain by inserting the erm gene into the bfabHB locus via a homologous double-crossover recombination event. […] The absence of either KASIII proteins in the rescued double-mutant strain was confirmed by Western blot analysis. These findings established that KASIII is essential for B. subtilis cellular metabolism.
Therefore, whether or not other fatty acids could improve the growth capabilities of the KASIII-deficient strain was examined. Rescue of the KASIII-deficient strain was attempted by the inclusion of anteiso- and iso-BCFAs, and normal saturated and unsaturated fatty acids of different chain lengths. These complementation experiments were conducted by providing these fatty acids in the media at three different concentrations (10, 30 and 100 μM each). […] None of the tested normal saturated chain fatty acids (n-C8:0, C10:0, C12:0, C14:0, C16:0 and C18:0) could rescue growth (at any of the tested concentrations).
Moreover, by conducting these tests at different growth temperatures, the degree to which these different types of fatty acids maintained membrane fluidity in response to thermal tolerance was assessed (Suutari et al., Crit. Rev. Microbiol. 20: 285-328 (1994)).
Four different types of 16-carbon fatty acids (anteiso-C16:0, iso-C16:0, palmitoleic acid, and palmitic acid) were supplied in the medium to evaluate the capacity of these different fatty acids to rescue the KASIII-deficient strain at four different temperatures between 16° C. and 37° C. […]

[1] = fatty acid in the media at 30 μM
[2] = fatty acid in the media at 10 μM (lowest concentration tested)

Row | SMILES | Rescue of growth of the KASIII-deficient strain [1] | Support of growth of the KASIII-deficient strain (30 μM in LB medium) | Rescue of growth of the KASIII-deficient strain [2] | further results
1 | CCCCCCC=CCCCCCCCCC(=O)O [n-C17:1(10)] | could rescue the KASIII deficiency |  |  | 
2 | CC(C)CCCCCCCCCCCCC(=O)O [iso-C16:0] | able to rescue growth | incapable of supporting growth |  | 
3 | CCCCCC/C=C\CCCCCCCC(=O)O [palmitoleic acid] | could rescue the KASIII deficiency | rescued the KASIII deficiency |  | 
4 | CCC(C)CCCCCCCCCCCC(=O)O (stereo not shown) [anteiso-C16:0] |  | rescued the KASIII deficiency | successful in complementing the KASIII deficiency | Efficiency in supporting growth of the KASIII-deficient strain (all temperatures tested, 16° C. to 37° C., 30 μM in LB medium): most efficient in supporting growth
5 | CCCCCCCC/C=C\CCCCCCCC(=O)O [oleic acid] |  |  |  | Rescue of growth of the KASIII-deficient strain (fatty acid in the media even at 100 μM): could not rescue the strain
6 | CCC(C)CCCCCCCCC(=O)O (stereo not shown) [anteiso-C13:0] |  |  | successful in complementing the KASIII deficiency | 

— patent US10184140B2, “Materials and methods for production of bi-functional fatty acids in recombinant bacteria” (IOWA STATE UNIVERSITY RESEARCH FOUNDATION, INC., priority 2013, dated 2019)
